The test system of this assay is panel of 60 different human tumor cell lines. The assay is described as follows: NCI 60 cell-line screen, whole panel (mean panel values).
Setting [1] is: read-out: Mean-Panel GI50, Example 5, contemporaneous quadruplicate testing, upper concentration 10^-6 molar.
Setting [2] is: Homo sapiens, read-out: Mean-Panel GI50.

Where two headings read alike, the source gives them in different places.

For the compound `CO/C1=C\C(C)=C\[C@@H](C)[C@@H](O)[C@@H](C)C/C(C)=C/C=C/[C@H](OC)[C@@H]([C@@H](C)[C@@H](O)[C@H](C)[C@@]2(O)C[C@@H](O)[C@H](C)[C@@H](C(C)C)O2)OC1=O` [bafilomycin A1, reference compound], the GI50 under setting [1] was 4.6 nM.

Take `C/C=C/[C@H]1O[C@@](O)([C@@H](C)[C@H](O)[C@H](C)[C@H]2OC(=O)/C(OC)=C/C(C)=C/[C@@H](C)[C@@H](O)[C@@H](CC)[C@@H](O)[C@H](C)C/C(C)=C/C=C/[C@@H]2OC)C[C@@H](O[C@H]2C[C@@H](O)[C@H](OC(N)=O)[C@@H](C)O2)[C@@H]1C` [concanamycin A, reference compound]: the GI50 under setting [1] stood at 0.33 nM.

On to `CO/N=C/C=C\C(=O)N/C=C/CC1CC(=O)OC(C)/C=C/C(O)/C(C)=C\Cc2cccc(O)c2C(=O)O1` (stereo not drawn) [lobatamide A], for which the GI50 under setting [2] was 4.8 nM.

As for `CO/N=C\C=C/C(=O)N/C=C/CC1CC(=O)OC(C)/C=C/C(O)/C(C)=C\Cc2cccc(O)c2C(=O)O1` (stereo not drawn) [lobatamide B], the GI50 under setting [2] stood at 0.73 nM.

With `CO/N=C/C=C/C(=O)N/C=C/CC1CC(=O)OC(C)/C=C/C(O)/C(C)=C\Cc2cccc(O)c2C(=O)O1` (stereo not drawn) [lobatamide C], the GI50 under setting [2] was 2.5 nM.

In the case of `CO/N=C\C=C/C(=O)N/C=C/CC1CC(=O)OC(CO)/C=C/C(O)/C(C)=C\Cc2cccc(O)c2C(=O)O1` (stereo not drawn) [lobatamide E], under setting [2], the GI50 stood at 1.3 nM.

Regarding `CO/N=C/C=C/C(=O)N/C=C/CC1CC(=O)OC(CO)/C=C/C(O)/C(C)=C\Cc2cccc(O)c2C(=O)O1` (stereo not drawn) [lobatamide F], under setting [2], the GI50 turned out to be 10 nM.

Turning to `CC/C=C\C=C/C(=O)N/C=C/CC1CC(O)C(C)C/C=C/Cc2cccc(O)c2C(=O)O1` (stereo not drawn) [salicylihalamide A], the GI50 was 33 nM under setting [2] and about 15 nM (Homo sapiens, read-out: mean panel GI50 concentration).

The values above are taken from patent US7381744B1, “Method of treating osteoporosis comprising vacuolar-type (H+)-ATPase-inhibiting compounds” (The United States of America as represented by the …, priority 1999, dated 2008).
